The values below come from paper PMC12136788.

First the molecules themselves.
B1: 186738473_186740042_1061_3pUTR_ENSMUSG00000026620_ENSMUST00000027929|mouse|control|control (ssRNA)
RNA: GGGAGUUCUACAGUCCGACGAUCUUCAUCUCGUGCAAAACCCAUGGUGACCAUAAUGUCUAUUCUUUUUGCAUCGCUGAGAUCAAGCUCAGGCUCAGAGUACGGCUUUAGCUCUUCUUCCUCAUGACCAACAUUCAUCCAUCGCAACAGAGGAUUGAGCAUCA
B2: chr12:42180722:42180723:-_ENSMUSG00000036295_ENSMUST00000043884|mus_hu|FALSE|FALSE (ssRNA)
RNA: GGGAGUUCUACAGUCCGACGAUCCUGUAGGAGAAGAAUCUGUGUGUUAGCUGGCAAUCUGGCUGGGAAAGUUAAAAGACCUAAAUCAUUACAAUCCACUGUAGAUGCUUCCAUAUAAAUGGAUCUGGGUGUAAACCAAGGCCUCAACAGAGGAUUGAGCAUCA
B3: chr9:14812383:14812384:-_ENSMUSG00000031934_ENSMUST00000164273|mus_mus|mus_mus_mus_hu_True|98_98 (ssRNA)
RNA: GGGAGUUCUACAGUCCGACGAUCAUAGCCCAGGUAGAUACAUGCCAACAGUAUAAUGAUGAGUGUCAGCAGGCGGCAGCUAAUGUACUUGAUGAUUAAAUUAUUAGAAUUUUUCUUUGUCUUCAAGUACUGCUCCACAAUUGGCAACAGAGGAUUGAGCAUCA
B4: chr5:137520266:137520267:+_ENSG00000112984_ENST00000394894|hu_hu|motif|central (ssRNA)
RNA: GGGAGUUCUACAGUCCGACGAUCAUCAAGGCCUGUGUCUGCCUUAGCCCCUUUCUCUAAGCUGGGGGAUACCUGAAGACGGUGUUCCUUGAUGAACGAGUGCAGGGAUGGGAAUCCCAGUUGCAUAGGUGGGGCAUGCACAAGCAACAGAGGAUUGAGCAUCA
B5: chr4:17845017:17845018:+_ENSG00000109805_ENST00000514176|hu_mus|FALSE|FALSE (ssRNA)
RNA: GGGAGUUCUACAGUCCGACGAUCGCUCUCUUAACUUGUAUCUUCAUUAAGGAACUCUGCAAGGUUAAGUUUACUUUUCUGUAGCGCAGCUGUUUUGGCUCGUCUGGGUAAUCUCAUCUUCAUUUCUGAUGGUGGUUCAUGAUCCAACAGAGGAUUGAGCAUCA
B6: chr17:61910164:61910165:-_ENSG00000108604_ENST00000448276|hu_mus|motif|central (ssRNA)
RNA: GGGAGUUCUACAGUCCGACGAUCCAGUAAUAAGGCUUUGGGAACCAAGCAGUGAGGGAUCUAAAACUACAUUUAUGAAACGGAAGCUGGGGAGUGGAGGGUGACAGGAAACACACCUCACUCCAUCCUACAUGUCUGCAGCCCCAACAGAGGAUUGAGCAUCA
B7: chr16:94690367:94690368:+_ENSMUSG00000040785_ENSMUST00000117648|mus_mus|FALSE|FALSE (ssRNA)
RNA: GGGAGUUCUACAGUCCGACGAUCUCUGUAUUUGCCACUGCCUACAGGUCACUAAAAAUACCUAGUUUUUGAAUAGUUUCUAAUACAGUUAGCUUGUUUUCAGGCCACAUUACAAGAUUGCAUGCAUUACUUUACACAAAAGUCCAACAGAGGAUUGAGCAUCA
B8: chr9:49313425:49313426:-_ENSMUSG00000039542_ENSMUST00000166811|mus_mus|FALSE|FALSE (ssRNA)
RNA: GGGAGUUCUACAGUCCGACGAUCUUUUAAAGGCAAAAGACACUAGAGGAAUGUGUUUGUGUGUGCGUGUGUGUGUGUGUGUGUGUGUGUGUGUGUGUGUGUGUAUGUGAGAGAGAGAGAGGGGGGGGGAUUAUUUGGGGAUGCCAACAGAGGAUUGAGCAUCA
B9: chr22:32879901:32879902:+_ENSG00000100225_ENST00000397426|hu_mus|hu_hu_hu_mus_False|8_58 (ssRNA)
RNA: GGGAGUUCUACAGUCCGACGAUCCUCUUCCAUACUCAUGGCAUCCUGAAUUGACUCAGCUUCAACAUUUUGACUAGGCCCUAACAUACUGUCAUCAGUCCAGGCAUCAAAUGGGGUGGCCUGUCCUUGGAAUGAAUCAGUCCCCAACAGAGGAUUGAGCAUCA
B10: chr5:21252845:21252846:+_ENSMUSG00000029017_ENSMUST00000030882|mus_mus|FALSE|FALSE (ssRNA)
RNA: GGGAGUUCUACAGUCCGACGAUCGUUUGCGACCAUGAGACAGAUCGUGUCUGGAUGGGCCCAACCAACUGCUUCAACAGCUAUUGCAAGGUGCGCCAAUGGCAUCUUGUCAUCCCUCACCCGAAUCUCACUUCCAGUGAACUUCAACAGAGGAUUGAGCAUCA
B11: chr1:66829163:66829164:+_ENSG00000184588_ENST00000423207|hu_hu|FALSE|FALSE (ssRNA)
RNA: GGGAGUUCUACAGUCCGACGAUCUACAUCAGCAGCGUGCAGGCUGUUGUGAUAUGCCACGUCAGAAUGGUAAUGGUCUUCUAAAGUCAUCAUGUAGGUUAUAAAUGUGUCAGAUGAGAUUCUGAAUGUCUUUAGGAGGUCUCUCAACAGAGGAUUGAGCAUCA
B12: chr4:144460044:144460045:+_ENSG00000153147_ENST00000283131|hu_mus|hu_hu_hu_mus_False|78_88 (ssRNA)
RNA: GGGAGUUCUACAGUCCGACGAUCACGGUCCAUAGCCUGAAGAUCAACUUGGGGAUUCCAAUCAGAAUCAUAUAAAAUGACUACAUCAGCAGUUGCAAGAUUGAUGCCCAGACCACCAGCACGUGUGCUUAGCAUAAAUACAAACAACAGAGGAUUGAGCAUCA
B13: chr16:94646735:94646736:+_ENSMUSG00000040785_ENSMUST00000117648|mus_hu|FALSE|FALSE (ssRNA)
RNA: GGGAGUUCUACAGUCCGACGAUCAGUUUUUAACUUCUUCCAGCAAUUCAUGUGAAAUUCUAUUUUACAGUACUGGCAACAGCUGAUGCGUAUAAAACCCUUAAAGUCUGGAUCAGUUAUGUAUAUCUGGAUCUUAGAAUAUCCCAACAGAGGAUUGAGCAUCA
B14: chr4:57314706:57314707:+_ENSG00000128050_ENST00000264221|hu_mus|hu_hu_hu_mus_True|88_108 (ssRNA)
RNA: GGGAGUUCUACAGUCCGACGAUCCAGUAUUUCAAAUAUAGCUUGUGUAGCAUGACUCAUGAUGUCCACUUCAGUCUGCCCUAUAACAAGGCCAGCAAAACAGAAUUUUGCAGCAAUGAGUUGCUCCUCAGACCACUGUGGAUCCAACAGAGGAUUGAGCAUCA
B15: 196541394_196545002_1390_CDS_ENSG00000180370_ENST00000327134|human|control|control (ssRNA)
RNA: GGGAGUUCUACAGUCCGACGAUCCAAAAGUACAUUGUCACUUUUGAUGUCUCUGUGGAUCACUUGAUUAGCAUGUAAAAACUCCAAUGCCUGUAAACACUCUCUGCAUACAGCAGCAAUCUGUGCUUCAUCCAUGCACGUUUCCAACAGAGGAUUGAGCAUCA
B16: chr1:36605538:36605539:-_ENSMUSG00000026121_ENSMUST00000114991|mus_hu|FALSE|FALSE (ssRNA)
RNA: GGGAGUUCUACAGUCCGACGAUCUAGCCCCAUCAGAGCAAUCGUUUCAUUUUCUCCAUUUUAUUUGUCAAUAUAAAAAUACUCAAAUAUUUACAACAAAUAAAUACGCGGGGACACAAUAAGUUACACUGUUAGGAGCCCUCCCAACAGAGGAUUGAGCAUCA
B17: 152987062_152987182_84_3pUTR_ENSMUSG00000068040_ENSMUST00000089027|mouse|control|control (ssRNA)
RNA: GGGAGUUCUACAGUCCGACGAUCUAGUGAGGAGGUAAAAGAAGCUUAAUUUCUCCUUGGCAGAUUGGCCUUGGCAGUGAGGUCUCUGACUAGGUGAAGAGAACGUACGGUGUAACUAUUGGAGCCAUAUUGACUUCUGGCAGACAACAGAGGAUUGAGCAUCA
B18: chr2:91389038:91389039:+_ENSMUSG00000040549_ENSMUST00000099716|mus_hu|FALSE|FALSE (ssRNA)
RNA: GGGAGUUCUACAGUCCGACGAUCUAAUCCUUUCAAUUGAACCACUGCAUUGGAAUCAGUGACAAAUUUUUUGAUCAAUCCUAAAAAUUUGGACCACUCUGGGCUCUUUUCAUCCUUUAUUUUCUGGAAGAUCUUCAGGGCCUCCAACAGAGGAUUGAGCAUCA
B19: 7357879_7357999_720_CDS_ENSMUSG00000019795_ENSMUST00000163085|mouse|control|control (ssRNA)
RNA: GGGAGUUCUACAGUCCGACGAUCUAAAGGCACGUAUAUCACCCCCAUGAGAGGUUUCAUUUUGACACUGCCAUCUUGUAGCUUGUCAUACUGCUCCAACAUUUGGUUUCCUCCUGCAGGACCGACUGGCAAUAUCAAUCUUCCCAACAGAGGAUUGAGCAUCA
B20: chr13:67002414:67002415:-_ENSMUSG00000021520_ENSMUST00000021993|mus_mus|FALSE|FALSE (ssRNA)
RNA: GGGAGUUCUACAGUCCGACGAUCAUCCUUAGGCAAGAUCUGAUGCCUCAUAGUCAGGUCCAGGGCUCUCUUAAUUCGAAACAUCCUGUCAUUAUAAAGGUCCUCAGGAAGCCUUCUUAUGGCUUCUUUUACAUCUUCAGUUUCCAACAGAGGAUUGAGCAUCA
B21: chr7:130129250:130129251:+_ENSMUSG00000030779_ENSMUST00000052135|mus_hu|FALSE|FALSE (ssRNA)
RNA: GGGAGUUCUACAGUCCGACGAUCCUCCUCUGGUAAGAAGGGAGGUUUCUCUUUCUUCCCAAUUGCAUAUGCUUCUGCAUCUAUAGUUGGUAUUGCAUAUUUUCCAGUGUUGGUAAGCAUUGCACCUUUCAUAUUAGGAUCUUUCAACAGAGGAUUGAGCAUCA
B22: chr5:21280853:21280854:-_ENSMUSG00000029014_ENSMUST00000030771|mus_hu|FALSE|FALSE (ssRNA)
RNA: GGGAGUUCUACAGUCCGACGAUCCUUUGCUUCACUUUUAGAAGGAACUGAGUUAUCAAAAGUAGGAUCUACACUGUUAAAUGCUCGUCUUUUCACUGGAUCAGAUAACAUUUCAUAAGCUUUAGUUAUGCAAGUGAAGUAGUCCAACAGAGGAUUGAGCAUCA

The other results are listed elsewhere or left out.

The assay addresses T1, UNK ZnF1-3 (human, UniProt Q9C0B0 31-174).
T1 sequence: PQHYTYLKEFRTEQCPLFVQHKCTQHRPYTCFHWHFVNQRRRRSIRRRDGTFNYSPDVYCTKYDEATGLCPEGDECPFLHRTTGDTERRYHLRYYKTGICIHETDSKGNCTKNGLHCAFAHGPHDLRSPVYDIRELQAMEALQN
Description: nsRBNS (natural sequence RNA bind-n-seq); RBNS binding buffer (assumed for nsRBNS): 25 mM Tris pH 7.5, 150 mM KCl, 3 mM MgCl2, 0.01% Triton X-100, 500 ug/ml BSA, 20 U/ml SUPERase-In, 4 C; UNK is unkempt and MSI1 is Musashi-1; names of the RNAs are library labels; protein concentration not given here; high values mean tight binding.
Turning to B1, the binding signal is 0.836 enrichment R.
With B2 the figure was 1.2 enrichment R; with B3, 1.49 enrichment R; with B4, 1.04 enrichment R.
Molecule B5 showed a binding signal of 0.404 enrichment R.
With B6 the figure was 1.23 enrichment R.
As to B7, the binding signal is 0.969 enrichment R.
With B8 the figure was 1.16 enrichment R; with B9, 1.39 enrichment R.
With B10 the figure was 0.465 enrichment R; with B11, 0.776 enrichment R; with B12, 1.45 enrichment R.
With B13 the figure was 0.826 enrichment R; with B14, 0.974 enrichment R.
As for B15, the binding signal stood at 0.591 enrichment R.
With B16 the figure was 1.07 enrichment R; with B17, 0.885 enrichment R; with B18, 0.862 enrichment R.
In the case of B19, the binding signal turned out to be 0.652 enrichment R.
With B20 the figure was 0.536 enrichment R.
With B21 the figure was 0.404 enrichment R; with B22, 0.845 enrichment R.
